According to PMC4336329 (PLoS ONE, 2015):
The whole screen tested about 310,000 compounds, of which about 14,000 (4.5%) showed an effect of 50% or more. The effect is printed as a negative number. The list shows a part of the results.

biological target: human ether-à-go-go-related gene (hERG) potassium channel (human, UniProt Q12809); assay: primary screen, population patch clamp on CHO cells stably expressing hERG
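Further: peak tail current of the secondary pulse compared with the same well before compound.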

Sequence of human ether-à-go-go-related gene (hERG) potassium channel (Q12809 whole entry, looked up): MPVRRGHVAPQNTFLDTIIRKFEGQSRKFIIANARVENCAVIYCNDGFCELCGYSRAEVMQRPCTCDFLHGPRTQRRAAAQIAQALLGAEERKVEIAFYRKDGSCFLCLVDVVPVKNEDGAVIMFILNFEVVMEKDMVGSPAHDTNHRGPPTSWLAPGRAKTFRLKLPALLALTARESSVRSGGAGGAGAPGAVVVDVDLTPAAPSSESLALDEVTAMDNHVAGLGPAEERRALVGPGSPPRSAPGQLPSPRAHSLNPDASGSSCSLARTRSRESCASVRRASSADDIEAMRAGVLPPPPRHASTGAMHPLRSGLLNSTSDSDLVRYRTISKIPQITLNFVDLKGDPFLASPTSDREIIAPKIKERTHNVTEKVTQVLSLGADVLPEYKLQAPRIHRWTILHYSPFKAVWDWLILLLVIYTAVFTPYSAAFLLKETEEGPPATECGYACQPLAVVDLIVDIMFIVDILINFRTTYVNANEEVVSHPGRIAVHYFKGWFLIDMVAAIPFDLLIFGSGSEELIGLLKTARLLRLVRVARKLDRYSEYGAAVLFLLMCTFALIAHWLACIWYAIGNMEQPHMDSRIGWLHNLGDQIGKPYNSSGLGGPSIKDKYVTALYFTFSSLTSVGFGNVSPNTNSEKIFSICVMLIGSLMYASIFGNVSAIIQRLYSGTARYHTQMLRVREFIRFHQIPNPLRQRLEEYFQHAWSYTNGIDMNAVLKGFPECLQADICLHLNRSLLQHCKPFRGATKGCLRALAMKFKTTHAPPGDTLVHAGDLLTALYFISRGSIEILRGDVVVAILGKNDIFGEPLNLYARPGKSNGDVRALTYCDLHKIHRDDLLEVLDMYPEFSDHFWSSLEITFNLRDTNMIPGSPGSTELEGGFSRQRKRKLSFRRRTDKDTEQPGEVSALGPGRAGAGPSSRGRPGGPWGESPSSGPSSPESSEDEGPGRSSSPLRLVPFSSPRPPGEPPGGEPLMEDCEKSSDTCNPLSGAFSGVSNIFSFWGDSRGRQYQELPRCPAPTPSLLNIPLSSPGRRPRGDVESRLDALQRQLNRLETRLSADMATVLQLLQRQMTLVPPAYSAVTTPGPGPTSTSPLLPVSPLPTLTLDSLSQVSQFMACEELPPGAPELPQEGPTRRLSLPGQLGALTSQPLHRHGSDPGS

| SMILES | hERG current change (%, negative = inhibition) at 10uM [%] |
| --- | --- |
| CC(C)(C)n1ncc2c(=O)n(Cc3ccccc3Br)cnc21 | -27.9 |
| Cc1ccc(C(=O)Nc2ccc(N3CCN(S(C)(=O)=O)CC3)cc2)cc1 | 4.23 |
| CCCNC(=O)c1cn(CC)c2cc(N3CCN(C(=O)c4ccco4)CC3)c(F)cc2c1=O | -67 |
| CCc1nn(-c2ccccc2)c(N)c1-c1ccc(OC)c(OC)c1 | 4.35 |
| c1ccc2c(c1)nc1n2CCN1 | 1.44 |
| COc1cc(C2NC(=O)NC(C)=C2[N+](=O)[O-])cc(OC)c1OC (stereo not drawn) | 9.03 |
| COc1cc(C(=O)NCc2ccco2)c(Br)c(OC)c1OC | -4.22 |
| Cc1ccc(S(=O)(=O)N2[C@@H](c3ccccc3F)C(C(=O)O)=CC[C@H]2c2ccc(Cl)c(Cl)c2)cc1 | 10.2 |
| COc1ccc(Cl)cc1C(=O)NCC(c1ccco1)N(C)C (stereo not drawn) | -4.19 |
| Cc1ccc(S(=O)(=O)N/N=C/c2cccn2-c2ccc(Cl)cc2)cc1 | -9.61 |
| O=C(NCc1ccccc1Cl)c1ccc2c(=O)n(CCCN3CCCC3=O)c(=S)[nH]c2c1 | -8.83 |
| O=C(COC(=O)C1=COCCO1)Nc1ncc(Cl)cc1Cl | -6.27 |
| CC(C)CSc1nnc2[nH]c(=O)cc(N)n12 | 6.36 |
| CCCCc1c(O)nc(SCC(=O)Nc2ccc3c(c2)CCC3)[nH]c1=O | 6.63 |
| CCOC(=O)c1ccc(NS(=O)C23CC4CC(CC(C4)C2)C3)cc1 (stereo not drawn) | 11.2 |
| CCn1c(COc2ccccc2)nnc1SCC(=O)c1cccc([N+](=O)[O-])c1 | -45.2 |
| C#CC(C)(CC)NC(=O)c1cc(OC)c(OC)c(OC)c1 (stereo not drawn) | 7.83 |
| COc1ccc([N+](=O)[O-])cc1NC(=O)C(C)OC(=O)c1cccnc1Cl (stereo not drawn) | -19.6 |
| CC1CCCN(C(=O)Nc2ccc(Br)cc2Cl)C1 (stereo not drawn) | -16.4 |
| COc1ccc(-c2noc(CSc3nnc(CCc4ccccc4)n3-c3ccccc3)n2)cc1OC | -11 |
| COc1ccc(CCNC(=O)CS(=O)Cc2nc(-c3cccs3)oc2C)cc1OC (stereo not drawn) | -11.9 |
| N#Cc1c(Nc2ccccc2C(F)(F)F)s[nH]c1=O | 8.33 |
| OCC(C#CCN1CCCCC1)NCc1ccccc1 (stereo not drawn) | 13.9 |

| SMILES | hERG current change (%, negative = inhibition) at 10uM [%] |
| --- | --- |
| COc1ccc(C(=S)Nc2ccccc2)cc1 | 12.5 |
| Cc1nc2sc(C(c3ccco3)N3CCC4(CC3)OCCO4)c(O)n2n1 (stereo not drawn) | 13 |
| O=C(CC(=O)c1ccccc1)Nc1ccccn1 | 11.7 |
| O=C(COC(=O)C1CC1)Nc1ccc(Cl)cc1Cl | 15.4 |
| O=C(COC(=O)c1ccc(F)cc1Cl)NC(=O)NC1CCCC1 | -5.3 |
| Cc1ccc(S(=O)(=O)NC(C(=O)Oc2ccc3c(C(F)(F)F)cc(=O)oc3c2)c2ccccc2)cc1 (stereo not drawn) | 3.04 |
| CC(C)C(=O)Nc1nnn(C)n1 | 0.556 |
| Cc1ccc2c(C)nc(Nc3nc(CSc4nnnn4-c4ccccc4)cc(=O)[nH]3)nc2c1 | -37.6 |
| Cn1nc(C(=O)Nc2cccc(C(F)(F)F)c2)c2ccccc2c1=O | 10.2 |
| CCCCC(=NCCc1c(C)[nH]c2ccc(OC)cc12)C1=C(O)CC(c2ccccc2)CC1=O (stereo not drawn) | -0.374 |
| COc1cc(OC)c(OC)cc1CN1CCC(O)CC1.Cl | 16.1 |
| C=CCNC(=O)C(C)Sc1ccc(Cl)cc1 (stereo not drawn) | 0.00948 |
| CCOc1cc(/C=N/NC(=O)c2cccnc2)ccc1OCC(=O)N1CCOCC1 | -7.96 |
| COc1ccccc1OCCNC(=O)c1ccc2c(c1)OCCO2 | 10 |
| O=C(NC1CC1)c1cc(-c2ccc(Br)cc2)nc2ccccc12 | 0.545 |
| CC(=O)Nc1n[nH]c(S(=O)(=O)Cc2ccc(Cl)cc2Cl)n1 | 5.99 |
| CC(Sc1ncn[nH]1)C(=O)Nc1ccc(Cl)cn1 (stereo not drawn) | 2.06 |
| CC(=O)Nc1ccc(NC(=O)C(C)OC(=O)CNS(=O)(=O)c2ccc(Br)cc2Cl)cc1 (stereo not drawn) | 8.47 |
| CCCSc1nnc(CSc2nc3ccccc3s2)n1-c1ccccc1 | -4.12 |
| O=C(NCc1cc([N+](=O)[O-])ccc1O)c1cc(-c2ccncc2)nc2ccccc12 | -22.5 |
| CCOC(=O)N1CCC(NC(=O)C2CCCN(S(=O)(=O)c3cccnc3)C2)CC1 (stereo not drawn) | 4.47 |
| CC(C)(C)NC(=O)NC(=O)COC(=O)Cc1coc2ccc3ccccc3c12 | -7.95 |
| Cc1nn(-c2ccccc2)c(C)c1NC(=O)COC(=O)CCCOc1ccccc1 | 6.69 |

| SMILES | hERG current change (%, negative = inhibition) at 10uM [%] |
| --- | --- |
| O=C(CCSc1ccccc1)Nc1nnc(-c2cccs2)o1 | 17.1 |
| CC(C)OC(=O)C1Cc2ccccc2CN1S(=O)(=O)c1cccs1 (stereo not drawn) | -6.37 |
| CCc1ccc(C(C)NC(=O)c2cccs2)cc1 (stereo not drawn) | 1.18 |
| O=C(NC1CC1)C1CC(=O)N(c2ccccc2)C1 (stereo not drawn) | 13.2 |
| COCCn1c(SCC(=O)Nc2ccc(S(=O)(=O)N(C)C)cc2)nc2ccccc21 | -45.5 |
| CSCCC(NC(=O)c1ccc([N+](=O)[O-])cc1Cl)C(=O)OCC(=O)NCCCc1ccccc1 (stereo not drawn) | -57.8 |
| CC(C)[C@H](NC(=O)[C@@H]1CSC2c3ccccc3C(=O)N21)C(=O)NC1CCCCC1 (stereo partly drawn) | 2.91 |
| COc1ccccc1/C=C1\SC(=O)N(CCC(=O)N2CCCCC2CCO)C1=O (stereo not drawn) | -2.53 |
| CCOC(=O)C(=O)N(Nc1ccc(C)cc1)c1ccc(C)cc1 | -16.5 |
| COc1cc2c(cc1NC(=S)Nc1cccc(C(F)(F)F)c1)oc1ccccc12 | 15.8 |
| CCc1nonc1NC(=O)c1oc2ccc(C)cc2c1C | 22.9 |
| COc1ccccc1C(=O)NC(=O)COC(=O)C1CC1 | -9.84 |
| CCNC(=S)N=Nc1c(O)[nH]c2ccc(C(C)C)cc12 | 2.79 |
| COc1cccc(NC(=S)N(CCC(C)C)C(C)c2ccncc2)c1 (stereo not drawn) | -12.8 |
| COc1cc(C)nc(SCC(N)=O)n1 | 7.26 |
| Cc1nonc1NC(=O)CSc1nc2c(C)cccc2cc1C#N | 4.66 |
| COc1cccc(C2=NC(C)(C)NC(c3ccccc3O)C2)c1 (stereo not drawn) | 2.64 |
| CC1CCCCN1C(=O)COC(=O)c1n[nH]c2ccccc12 (stereo not drawn) | -4.91 |
| CCS(=O)(=O)C1=NSC2=NC(=O)/C(=C\c3ccc(OS(=O)(=O)c4ccccc4)c(OC)c3)C(=N)N21 | 14.5 |
| Cn1c(Cc2csc(N)n2)nnc1SCC(=O)NC1CCCCC1 | -4.67 |
| CN(C)C(=O)c1nc2ccc(Cl)cn2c1CNCc1ccccc1OC(F)(F)F | -2.88 |
| Nc1ccc2nn(-c3ccc(F)cc3)nc2c1 | 15.6 |
| Clc1ccccc1-c1csc(Nc2cccnc2)n1 | -3.14 |

| SMILES | hERG current change (%, negative = inhibition) at 10uM [%] |
| --- | --- |
| Cc1ccc(Nc2cnn(C34CC5CC(CC(CC(=O)O)(C5)C3)C4)c(=O)c2Cl)cc1C | 8.31 |
| COc1ccc(Cc2nnc(SCC(=O)Nc3ccc(C)c(Cl)c3)[nH]c2=O)cc1 | -1.35 |
| O=C(NCCCN=C1NS(=O)(=O)c2ccccc21)c1ccc(Cl)cc1 | 8.24 |
| C/C(Cn1cnc([N+](=O)[O-])n1)=N\NC(=O)c1ccccc1F | 16.4 |
| O=C(O)C1OC(C(=O)O)C2C1C(F)(F)C2(F)F (stereo not drawn) | 14.3 |
| CCCCN(CC)C(=O)CSc1nc2ccccc2c(=O)n1CC1COc2ccccc2O1 (stereo not drawn) | -37.6 |
| CS(=O)(=O)N1CC(C(=O)O)Oc2ccc(CC(=O)O)cc21 (stereo not drawn) | 22 |
| S=C(NCCSCc1ccc(Cl)cc1)Nc1ccccc1 | 1.83 |
| Cn1cnnc1SCC(=O)Nc1ccccc1C(=O)NC1CC1 | -2.68 |
| C=CCNC(=S)NNC(=O)c1ccc(OCC)cc1 | 2.31 |
| COc1cccc(CN2CC(C(=O)NCc3cccc(N4CCCC4)c3)CCC2=O)c1 (stereo not drawn) | -5.08 |
| CCC12CN(S(=O)(=O)c3ccc(C)cc3)CC(CC)(CN(S(=O)(=O)c3ccc(C)cc3)C1)C2=O | 2.03 |
| COc1ccc(C(=O)Nc2sc(C(=O)N(C)C)c(C)c2C#N)cc1[N+](=O)[O-] | 8.47 |
| COc1ccc(NC(C)=O)cc1S(=O)(=O)N1CCN(Cc2cccs2)CC1 | -3.53 |
| O=C(N/N=C/c1c(Cl)[nH]c2ccccc12)c1ccc2c(c1)OCCO2 | -15.9 |
| CC(=O)N(CCN1CCOCC1)Cc1cc2cc3c(cc2nc1Cl)OCO3 | 17.8 |
| Cc1ccc(Cl)cc1NC(=S)N(C)N | -8.24 |
| Cn1c(/C=C/c2ccc(Cl)cc2Cl)c([N+](=O)[O-])c(=O)n(C)c1=O | 16.7 |
| CC(=O)c1ccc(C(=O)Nc2nnc(-c3ccc(Cl)cc3)o2)cc1 | 4.1 |
| S=C(Nc1ccccc1)Nc1ccc(Br)cn1 | 12.3 |
| CC(=O)c1ccc(NC(=O)CCNS(=O)(=O)c2ccccc2F)cc1 | 11.9 |
